Measured values from the supplement of paper PMC10126150.
Values marked as one replicate rest on one cluster of the flow cell; about a third of the high ones do not repeat.

These sequences were tested on ATP (assay: switch fluorescence ratio, 500 uM ATP over buffer (Cy3 cluster intensity, sum of 5 cycles each) (fold (ratio)); higher = stronger signal-on switching upon ATP binding; sequences stand for … in TCGTCGGCAGCGTCAGATGTGTATAAGAGACAGTTTTTTTTTTTTTTTTTTTTTTTTT…TC). Settings: aptamer strand: ATP DNA aptamer (quencher-CACCTGGGGGAGTATTGCGGAGGAAGG + anchor), 100 nM annealed; ATP concentration: 500 uM; one replicate.
In short: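 The quencher-labelled ATP aptamer, at 100 nM, was annealed to Cy3-labelled switching-strand clusters on a modified Illumina MiSeq flow-cell. The clusters were imaged in selection buffer, then after 15 min with 500 uM ATP at 22 °C, and this buffer/ATP cycle ran five times with NaOH stripping and re-annealing between runs. Per-cluster fluorescence ratios, summed target-cycle over summed buffer-cycle Cy3 intensity, were averaged per switch-domain sequence. Clusters outside 100-1000 RFU were excluded.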
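Note: ATP exposure 15 min at 22 °C before imaging.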

| Sequence | switch fluorescence ratio |
| --- | --- |
| GACCGAGAGA | 0.997 |
| GACCGGGACG | 1.01 |
| GACCGTTCTG | 1.02 |
| GACCGTTTAA | 1.02 |
| GACCTAGGAC | 1 |
| GACCTCGTGT | 1.02 |
| GACCTCTCTG | 1.04 |
| GACCTTGGCC | 1.06 |
| GACGACAGGA | 1.08 |
| GACGACCTGA | 1.03 |
| GACGACGAAT | 4.03 |
| GACGAGGCTC | 1.74 |
| GACGATAAA | 1.03 |
| GACGATATCA | 1 |
| GACGATTACA | 1.12 |
| GACGCAGACA | 1.38 |
| GACGCCCCTT | 1.14 |
| GACGCCGGGC | 1.13 |
| GACGCGCACT | 1.65 |
| GACGCGCAGG | 1.07 |
| GACGCGCGT | 0.977 |
| GACGCGTACC | 3.19 |
| GACGCTTCGA | 1.13 |
| GACGGCTAGC | 1.02 |
| GACGGGTTAC | 2.2 |

| Sequence | switch fluorescence ratio |
| --- | --- |
| GACGGTACAG | 0.965 |
| GACGGTACTT | 1.48 |
| GACGGTTGAA | 0.995 |
| GACGTAATGG | 2.77 |
| GACGTATCGC | 1.03 |
| GACGTGGACA | 1.07 |
| GACGTGGTGA | 1.01 |
| GACGTGTACA | 1.07 |
| GACGTTGACT | 1.06 |
| GACGTTTAAC | 1.22 |
| GACGTTTACT | 1.08 |
| GACGTTTAGG | 1.02 |
| GACGTTTTAT | 1.01 |
| GACTAAAACA | 1.01 |
| GACTAATTTG | 1.02 |
| GACTACCTGG | 1.1 |
| GACTACGGGG | 1.11 |
| GACTAGCACT | 1.14 |
| GACTAGGACG | 0.992 |
| GACTAGGAGT | 0.985 |
| GACTAGTTCG | 0.996 |
| GACTCAGTAG | 1.02 |
| GACTCGGCCT | 1.04 |
| GACTGAGA | 0.982 |
| GACTGAGCTT | 1.06 |

| Sequence | switch fluorescence ratio |
| --- | --- |
| GACTGCCCCT | 1.09 |
| GACTGCGACG | 1.01 |
| GACTGGGCTA | 1.05 |
| GACTGGTGGC | 1 |
| GACTGTCGC | 1.07 |
| GACTGTGATT | 0.997 |
| GACTGTGTTT | 1 |
| GACTTAAAAG | 1.01 |
| GACTTAATTC | 1.03 |
| GACTTACTTT | 1.14 |
| GACTTAGTAG | 1.05 |
| GACTTCGGCA | 1.82 |
| GACTTGATGT | 1.03 |
| GACTTGGCTG | 0.981 |
| GACTTTACGA | 1.22 |
| GAGAATACGT | 1.01 |
| GAGAATAGTG | 0.99 |
| GAGAATCAC | 0.996 |
| GAGACACCAG | 1.07 |
| GAGACCTAGA | 1.02 |
| GAGACGGGGC | 1.11 |
| GAGACTAATG | 0.955 |
| GAGACTAGTA | 1.03 |
| GAGAGAGCGT | 0.991 |
| GAGAGCATGG | 0.976 |

| Sequence | switch fluorescence ratio |
| --- | --- |
| GAGAGCTTTA | 0.999 |
| GAGAGGCGCG | 1.07 |
| GAGAGGGCTC | 1.04 |
| GAGAGGGTCG | 0.94 |
| GAGAGGTGCA | 0.973 |
| GAGAGTCGGT | 1.01 |
| GAGAGTGGCC | 0.935 |
| GAGAGTTTAG | 0.995 |
| GAGATAATGA | 1.03 |
| GAGATAGTT | 1.02 |
| GAGATATCCC | 1.03 |
| GAGATGGAGG | 1.02 |
| GAGATGTCGT | 0.968 |
| GAGATTGAAC | 0.964 |
| GAGATTTACG | 1 |
| GAGCAGGGGA | 1.05 |
| GAGCATTTTG | 0.984 |
| GAGCCAAGAG | 1.09 |
| GAGCCAGGAT | 0.937 |
| GAGCCATCTA | 0.95 |
| GAGCCCCATG | 1.13 |
| GAGCCGACCA | 1.02 |
| GAGCCGGGGA | 1.07 |
| GAGCGATAAA | 1.02 |
| GAGCGATCAG | 0.994 |

| Sequence | switch fluorescence ratio |
| --- | --- |
| GAGCGCAGAC | 1.24 |
| GAGCGGATTG | 0.985 |
| GAGCGGCCAC | 1.02 |
| GAGCGGGAGA | 1.05 |
| GAGCGTTTCG | 1.03 |
| GAGCTAACTT | 1.03 |
| GAGCTCCGGG | 1.04 |
| GAGCTCCTAT | 1.02 |
| GAGCTGGCCC | 0.955 |
| GAGCTGTAAA | 0.98 |
| GAGCTGTTAA | 0.998 |
| GAGCTTAATA | 1.01 |
| GAGGAAATT | 2.61 |
| GAGGAACCGT | 1.01 |
| GAGGACACAT | 1.04 |
| GAGGACCA | 1.04 |
| GAGGACCAAC | 1.08 |
| GAGGACCCGG | 0.986 |
| GAGGAGAAGG | 1.03 |
| GAGGAGCCGT | 1.14 |
| GAGGAGTTGG | 0.942 |
| GAGGATACTC | 1.02 |
| GAGGCAAAAT | 1.11 |
| GAGGCGACGG | 1.02 |
| GAGGCGCTC | 1.03 |

| Sequence | switch fluorescence ratio |
| --- | --- |
| GAGGCGGGAT | 0.965 |
| GAGGCGTATG | 0.982 |
| GAGGCTCATC | 1.03 |
| GAGGCTGCTG | 1.11 |
| GAGGGAAGCA | 1.03 |
| GAGGGACAGA | 1.01 |
| GAGGGACTAT | 1.04 |
| GAGGGAGTTA | 0.972 |
| GAGGGATAGG | 0.953 |
| GAGGGCGGCT | 0.922 |
| GAGGGCTTGA | 1 |
| GAGGGGCGAA | 1.01 |
| GAGGGGCTTG | 1.02 |
| GAGGGGTCTC | 1.05 |
| GAGGGTGAAA | 1.21 |
| GAGGGTTAAC | 1.39 |
| GAGGGTTGGT | 0.989 |
| GAGGTAAAGG | 0.99 |
| GAGGTAATCG | 1.09 |
| GAGGTCACTT | 1.01 |
| GAGGTCAGAT | 0.977 |
| GAGGTCGGTC | 1.04 |
| GAGGTGCGAA | 1.01 |
| GAGGTTAATC | 0.978 |
| GAGTAAAAGT | 0.974 |

| Sequence | switch fluorescence ratio |
| --- | --- |
| GAGTAAGATA | 0.932 |
| GAGTACAACG | 0.986 |
| GAGTACCGCA | 1.38 |
| GAGTACCTAG | 1.03 |
| GAGTACTAGC | 1 |
| GAGTAGGAAA | 1.01 |
| GAGTATCATT | 1 |
| GAGTCAAGCA | 1.11 |
| GAGTCAGCGA | 1.51 |
| GAGTCAGGCT | 0.949 |
| GAGTCAGTTT | 0.996 |
| GAGTCCAG | 0.983 |
| GAGTCCCAT | 1.05 |
| GAGTCCGGT | 0.965 |
| GAGTCGAAGG | 1.04 |
| GAGTCTACGG | 0.988 |
| GAGTCTAGAT | 0.967 |
| GAGTCTAGGG | 0.989 |
| GAGTGAATGT | 1.01 |
| GAGTGAGACC | 0.974 |
| GAGTGAGCCC | 0.925 |
| GAGTGATCCG | 0.959 |
| GAGTGATCCT | 1.04 |
| GAGTGATTTG | 1.02 |
| GAGTGCCAAC | 0.949 |

| Sequence | switch fluorescence ratio |
| --- | --- |
| GAGTGCTAGA | 1.05 |
| GAGTGGCCTG | 0.918 |
| GAGTGGGAAC | 1.03 |
| GAGTGGTCGG | 1 |
| GAGTGGTGTC | 1.03 |
| GAGTGTGAG | 0.937 |
| GAGTGTGGCC | 0.996 |
| GAGTGTGTCC | 1.02 |
| GAGTGTTGTT | 0.976 |
| GAGTGTTTTT | 1.01 |
| GAGTTAAGCA | 1.07 |
| GAGTTAATA | 0.99 |
| GAGTTACGCT | 1.03 |
| GAGTTGATAC | 1.05 |
| GAGTTTAATG | 0.994 |
| GAGTTTATAC | 1.01 |
| GATAAAATAA | 1.02 |
| GATAAACCCG | 1.11 |
| GATAAGGCTA | 0.975 |
| GATAAGGGCC | 1 |
| GATAAGGGTT | 0.986 |
| GATAATTTAC | 1.04 |
| GATACATCCT | 1.06 |
| GATACCCGGG | 1.03 |
| GATACGTTCG | 0.993 |
